In PubChem BioAssay AID624170 (National Center for Advancing Translational Sciences (NCATS), 2012):
The campaign covered roughly 410,000 compounds. About 850 (0.21%) were called active. Inconclusive means that the source gave no clear call. Such entries were picked first, then a sample of the others. Calls come from the whole dose curve; as a rule, active = well fitted inhibition curve with a large enough effect; inconclusive = small, poorly fitted or top-dose-only effect, or another doubt; inactive = no such curve, though single readings can be large or run the other way. Potencies of inconclusive entries are left out as doubtful fits.

These molecules were tested against Glutaminase kidney isoform, mitochondrial (Homo sapiens) (UniProt O94925) (assay: qHTS for Inhibitors of Glutaminase (GLS)). Conditions: GLS enzymatic activity, qHTS titration; series mostly up to 45.5 µM; activity change, negative = inhibition: at the top concentration.
How it was run: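 Assay buffer: 45 mM KH2PO4 pH 8.2, 0.02% Tween-20. hKGA acts on L-glutamine (1 mM solution added); product glutamate is reported by an oxidase/peroxidase Amplex Red coupling, with fluorescence taken at baseline and 30 min.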
% is set by controls: 0 for no effect and ±100 for the full control effect; potency is the fitted concentration of half-maximal effect; tags give direction and shape of the fitted curve.

Sequence of UniProt O94925 (O94925 whole entry, looked up, canonical isoform): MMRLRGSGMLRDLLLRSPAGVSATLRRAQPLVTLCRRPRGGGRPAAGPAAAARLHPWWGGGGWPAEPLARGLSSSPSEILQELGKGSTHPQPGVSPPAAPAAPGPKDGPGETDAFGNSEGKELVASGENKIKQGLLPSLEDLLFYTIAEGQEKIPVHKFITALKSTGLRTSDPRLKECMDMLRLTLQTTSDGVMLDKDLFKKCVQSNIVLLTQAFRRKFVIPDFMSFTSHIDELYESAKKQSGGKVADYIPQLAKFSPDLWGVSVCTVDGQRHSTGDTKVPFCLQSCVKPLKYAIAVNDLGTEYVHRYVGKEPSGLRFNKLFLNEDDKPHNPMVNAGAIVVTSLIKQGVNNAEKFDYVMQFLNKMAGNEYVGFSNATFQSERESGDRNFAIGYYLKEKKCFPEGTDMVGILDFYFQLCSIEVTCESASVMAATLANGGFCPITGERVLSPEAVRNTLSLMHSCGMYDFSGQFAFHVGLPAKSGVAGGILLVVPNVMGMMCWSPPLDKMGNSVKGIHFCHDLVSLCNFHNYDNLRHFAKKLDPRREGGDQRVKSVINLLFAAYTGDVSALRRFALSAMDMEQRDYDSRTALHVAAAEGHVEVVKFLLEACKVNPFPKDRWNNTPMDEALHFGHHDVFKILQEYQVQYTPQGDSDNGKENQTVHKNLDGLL

| Structure (SMILES) | Potency | activity change, negative = inhibition |
| --- | --- | --- |
| Cc1cc(-c2nc(C)c(C(=O)NN)s2)no1 | inconclusive [inhibitor, partial curve] | – |
| CC(=O)C1=C(C)OC(N)=C(C#N)C1c1cccc2ccccc12 (stereo not drawn) | inconclusive [inhibitor, single point] | – |
| COc1cc(CN2CCc3c([nH]c4ccccc34)C2)cc(OC)c1 | inconclusive [inhibitor, single point] | – |
| CC(=O)Nc1n[nH]c(=S)s1 | inconclusive [inhibitor, single point] | – |
| COc1ccc(-c2ccc(SCC(=O)NCc3ccc4c(c3)OCO4)nn2)cc1OC | inconclusive [inhibitor, single point] | – |
| O=C(NC(=S)Nc1ccc(N2CCN(C(=O)c3ccccc3)CC2)cc1)c1cccs1 | inconclusive [inhibitor, single point] | – |
| O=C(CC1SC(=Nc2ccc(O)cc2)NC1=O)Nc1ccccc1 (stereo not drawn) | inconclusive [inhibitor, partial curve] | – |
| Cc1cc(C(F)(F)F)nc(SCc2ccc(C(=O)O)o2)n1 | inconclusive [inhibitor, single point] | – |
| CCNC(=S)NNC(=O)c1ccc(=O)n(Cc2ccccc2)c1 | inconclusive [inhibitor, single point] | – |
| O=C1C=C(c2ccccc2)C(=O)N1Nc1ccccc1 | inconclusive [inhibitor, single point] | – |
| c1ccc(-n2nnnc2SCCCSc2nc3ccccc3s2)cc1 | inconclusive [inhibitor, partial curve] | – |
| NNC(=O)c1cc2ccccc2cc1NS(=O)(=O)c1ccccc1 | inconclusive [inhibitor, partial curve] | – |
| CCc1ccc(-n2c(=O)c3ccccc3n3c(=S)[nH]nc23)cc1 | – | inactive: -22.6% |
| O=C(OCc1ccccc1)N1CCC2CC1c1cc(N3CCNCC3)ccc12 (stereo not drawn) | – | inactive: 11.8% |
| COc1cccc(CNC(=O)CN2C(=O)N(c3c(C)cccc3C)S(=O)(=O)c3ccccc32)c1OC | – | inactive: 1.12% |
| CCN1C(=O)C(CC(=O)NCCc2ccccc2)N(NC(=O)c2cccnc2)C1=S (stereo not drawn) | inconclusive [inhibitor, partial curve] | – |
| CN(C)c1ccc(NC2=C([N+](=O)[O-])CS(=O)(=O)C2)cc1 | – | inactive: 29.7% |
| CCC(N1CCOC1=O)S(=O)(=O)c1ccc(C)cc1 (stereo not drawn) | – | inactive: -0.948% |
| COc1cc(/C=C/C(=O)OC(C)C(=O)Nc2c(C)n(C)n(-c3ccccc3)c2=O)ccc1O (stereo not drawn) | inconclusive [inhibitor, partial curve, poor fit] | – |
| Cc1ccc(NC(=O)c2ccccc2CCc2ccccc2)c(C)c1 | inconclusive [inhibitor, single point] | – |
| CCNC(=S)NNC(=O)c1ccc(S(=O)(=O)NCc2ccco2)cc1 | inconclusive [inhibitor, partial curve] | – |
| COC1OC(CO)C(OC2OC(C(=O)O)C(OC3OC(COS(=O)(=O)O)C(OC4OC(C(=O)O)C(OC5OC(CO)C(OC6OC(C(=O)O)C(OC7OC(COS(=O)(=O)O)C(OC8OC(C(=O)O)=C[C@H](O)C8OS(=O)(=O)O)C(O)C7NC(C)=O)[C@@H](O)C6O)C(O)C5NC(C)=O)[C@@H](O)C4O)C(O)C3NC(C)=O)[C@@H](O)C2O)C(O)C1NC(C)=O (stereo partly drawn) | – | inactive: 13.2% |
| CCN(CC(=O)Nc1c(F)cccc1F)C(=O)c1ccc(OCc2c(C)noc2C)cc1 | – | inactive: -2.25% |

| Structure (SMILES) | Potency | activity change, negative = inhibition |
| --- | --- | --- |
| Cc1cc(N2C(=O)C(O)=C(C(=O)c3cccs3)C2c2ccccc2)no1 (stereo not drawn) | – | inactive: 2.24% |
| Cc1[nH]c(=S)[nH]c(=O)c1Cc1ccccc1 | inconclusive [inhibitor, full curve, poor fit] | – |
| C#CCCc1cscc1/C=[N+](\[O-])c1ccc(C(=O)OCC)cc1 | inconclusive [inhibitor, single point] | – |
| O=C(Nc1ccccc1)c1cc(C2CCCN(C(=O)c3ccccc3)C2)on1 (stereo not drawn) | inconclusive [inhibitor, single point] | – |
| COc1cc(S(=O)(=O)NCc2ccccn2)ccc1Cl | inconclusive [inhibitor, single point] | – |
| Cc1ccc(C(C)(C)c2ccc(C)cc2)cc1 | – | inactive: 0.224% |
| Cc1cc(C(=O)Nc2ccccc2N2CCOCC2)ccc1[N+](=O)[O-] | – | inactive: -3.76% |
| CCOC(=O)Cn1c(=O)n(CC2CCCO2)c2nc(-c3ccccc3F)nc(C(N)=O)c21 (stereo not drawn) | – | inactive: 2.35% |
| Fc1ccc(CSc2nc3ncccc3[nH]2)cc1 | – | inactive: 11.1% |
| Cc1cccc(C(=O)NNC2=CC(=O)CC(C)(C)C2)c1O | inconclusive [inhibitor, single point] | – |
| CCCCCCCCCCCCCCCC[n+]1ccc(C(N)=O)cc1 | inconclusive [inhibitor, single point] | – |
| COc1ccc(NC(=O)c2cc(S(=O)(=O)NCC3COc4ccccc4O3)ccc2F)cc1 (stereo not drawn) | – | inactive: 3.94% |
| O=C(NCC(c1cccs1)N1CCOCC1)c1ccc(Cl)c(S(=O)(=O)N2CCOCC2)c1 (stereo not drawn) | inconclusive [inhibitor, partial curve, poor fit] | – |
| O=C(N/N=C1/CC2C=CCC12)c1ccco1 (stereo not drawn) | inconclusive [inhibitor, single point] | – |
| CC(/C=N\NC(=O)c1cc(C)oc1C)=C\c1ccccc1 | – | inactive: -2.03% |
| C=CCn1c(C(CCCC)CC(O)COCC(C)C)n[nH]c1=S (stereo not drawn) | inconclusive [inhibitor, single point] | – |
| COc1ccc(CC(=O)NNC(=S)Nc2ccccc2)cc1Cl | inconclusive [inhibitor, single point] | – |
| CC1=C(C(=O)Nc2ccccn2)C(c2ccccc2Cl)NC(=S)N1 (stereo not drawn) | – | inactive: -2.35% |
| COc1cc(C)c(NC(c2ccccc2)c2ccccc2)cc1OC | inconclusive [inhibitor, single point] | – |
| CC(=O)Oc1cc2c(cc1Cl)C1(CC(c3ccccc3Cl)O2)CC(C)(C)NC(=S)N1 (stereo not drawn) | inconclusive [inhibitor, full curve] | – |
| CCNCCC(=O)N1c2ccccc2Sc2ccc(NC(=O)OCC)cc21 | active: 11.2 µM | – |
| O=C(COC(=O)Cc1ccc(Cl)cc1)NCc1ccco1 | inconclusive [inhibitor, single point] | – |
| Cc1[nH]c2ccccc2c1/C=N/Nc1ccc([N+](=O)[O-])cc1 | inconclusive [inhibitor, single point] | – |

| Structure (SMILES) | Potency | activity change, negative = inhibition |
| --- | --- | --- |
| CC(=O)Nc1cccc(-c2nc3ccccc3s2)c1 | – | inactive: -1.01% |
| COc1ccc(CCNC(=O)C2CCN(C(=O)NC3CCCCC3)CC2)cc1 | inconclusive [inhibitor, partial curve, poor fit] | – |
| CCOc1cc(-c2nnc(SCC(=O)NCc3ccccc3)nc2-c2ccc(OC)c(OCC)c2)ccc1OC | – | inactive: 9.48% |
| O=C(COC(=O)CC1CC2CCC1C2)Nc1cccc(S(=O)(=O)NC2=NCCCCC2)c1 (stereo not drawn) | inconclusive [inhibitor, single point] | – |
| Cc1cccc(Cn2c(C)c(C)c3cc(C(=O)NCc4ccco4)ccc32)c1 | inconclusive [inhibitor, full curve] | – |
| CCN(CC)Cc1c(C(=O)N/N=C/c2cccc3ccccc23)nnn1-c1nonc1N | inconclusive [inhibitor, partial curve] | – |
| CCOc1cc(CN2CCCC(C(=O)c3cccc(C(F)(F)F)c3)C2)ccc1O (stereo not drawn) | inconclusive [inhibitor, partial curve] | – |
| Cn1nc(-c2ccc(OCC(=O)Nc3cccc(C(F)(F)F)c3)cc2)c2ccccc2c1=O | inconclusive [inhibitor, partial curve] | – |
| CN(C)c1ccc(/C=N\Nc2ccccn2)cc1 | inconclusive [inhibitor, partial curve, poor fit] | – |
| CCC12CN3CC(CC)(CN(C1)C3c1ccccc1Cl)C2O (stereo not drawn) | inconclusive [inhibitor, single point] | – |
| O=P(CCCCCCCCCP(=O)(c1ccccc1)c1ccccc1)(c1ccccc1)c1ccccc1 | – | inactive: -7.74% |
| O=C(Nc1nc(-c2ccncc2)cs1)c1ccco1 | – | inactive: 4.56% |
| COc1ccccc1NS(=O)(=O)c1ccc2oc(=S)[nH]c2c1 | inconclusive [inhibitor, single point] | – |
| Cc1[nH][nH]c(=O)c1C(c1ccc(O)c(Br)c1)c1c(C)[nH][nH]c1=O | active: 12.6 µM | – |
| O=C(Cc1ccccc1F)Nc1ccccc1-c1ccccc1 | inconclusive [inhibitor, partial curve, poor fit] | – |
| O=C(Nc1ccc(Cl)cc1Cl)c1cc(S(=O)(=O)N2CCC3(CC2)OCCO3)ccc1F | – | inactive: -4.54% |
| C#CCNC(=O)C[C@@H]1C[C@@]2(C(=O)OCC)CCC=C2N(Cc2ccco2)C1=O | inconclusive [inhibitor, partial curve] | – |
| O=C(NC1CCCCCC1)C1CCN(C(=O)N2CCOc3ccc(Cl)cc32)CC1 | inconclusive [inhibitor, single point] | – |
| CC1CCN(S(=O)(=O)c2ccc(NC(=O)C3CCN(C(=O)c4ccco4)CC3)cc2)CC1 | inconclusive [inhibitor, single point] | – |
| CC(C)Cc1ccc(CN2CCC(n3nccc3NC(=O)C3CCCC3)CC2)cc1 | – | inactive: 6.32% |
| CN(c1ncc(C(F)(F)F)cc1Cl)N1C(=O)c2cccc(N)c2C1=O | – | inactive: -8.68% |
| C[C@H](CO)N1C[C@H](C)[C@@H](CN(C)C(=O)Nc2ccccc2)Oc2ncc(C#CC3CCCCC3)cc2C1=O | inconclusive [inhibitor, single point] | – |
